# Measurements taken from the supplement of paper PMC6746778.
# The list shows a part of the results. Many values rest on one well or one pass, so single values are uncertain.
# Tests used:
# Assay in all cases: proliferation Z-score within cell line (SRB, relative to all inhibitors screened on that line); triple-negative breast cancer lines and a kinase inhibitor library; SRB is the sulforhodamine B protein stain; higher = less growth inhibition (more resistant)
# Conditions in all cases: concentration: 1 µM; 4 days
# Bt20 = test system: Bt20
# Bt549 = test system: Bt549
# HCC1143 = test system: HCC1143
# HCC1806 = test system: HCC1806
# HCC1937 = test system: HCC1937
# HCC38 = test system: HCC38
# HCC70 = test system: HCC70
# Hs578T = test system: Hs578T
# MDA-MB-231 = test system: MDA-MB-231
# MDA-MB-435s = test system: MDA-MB-435s
# MDA-MB-436 = test system: MDA-MB-436
# MDA-MB-453 = test system: MDA-MB-453
# MDA-MB-468 = test system: MDA-MB-468
# SKBR7 = test system: SKBR7
# SUM1315MO2 = test system: SUM1315MO2
# SUM149PT = test system: SUM149PT
# SUM159PT = test system: SUM159PT
# SUM185PE = test system: SUM185PE
# SUM229PE = test system: SUM229PE
# SUM52PE = test system: SUM52PE
# 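Further: Single-dose primary screen of a 378-member kinase inhibitor library in 96-well plates, with growth read as absorbance of protein-bound SRB dye after TCA fixation.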
Structure (SMILES),proliferation Z-score within cell line (Bt20),proliferation Z-score within cell line (Bt549),proliferation Z-score within cell line (HCC1143),proliferation Z-score within cell line (HCC1806),proliferation Z-score within cell line (HCC1937),proliferation Z-score within cell line (HCC38),proliferation Z-score within cell line (HCC70),proliferation Z-score within cell line (Hs578T),proliferation Z-score within cell line (MDA-MB-231),proliferation Z-score within cell line (MDA-MB-435s),proliferation Z-score within cell line (MDA-MB-436),proliferation Z-score within cell line (MDA-MB-453),proliferation Z-score within cell line (MDA-MB-468),proliferation Z-score within cell line (SKBR7),proliferation Z-score within cell line (SUM1315MO2),proliferation Z-score within cell line (SUM149PT),proliferation Z-score within cell line (SUM159PT),proliferation Z-score within cell line (SUM185PE),proliferation Z-score within cell line (SUM229PE),proliferation Z-score within cell line (SUM52PE)
C#Cc1cccc(Nc2ncnc3cc(OC)c(OCCCCCCC(=O)NO)cc23)c1,-0.111,0.0928,-1.64,-1.84,-0.258,0.168,0.293,0.463,-0.0228,0.69,0.294,-1.56,-1.38,0.249,0.49,-0.355,0.342,0.0669,0.57,-0.453
O=C1NC(=O)/C(=C/c2cccc(C(F)(F)F)c2)S1,0.509,0.308,0.422,0.432,0.642,0.381,0.518,0.587,0.828,0.812,0.808,0.262,0.866,0.606,0.987,0.622,0.413,0.814,0.558,0.966
O=C(c1ccc(/C=C/c2n[nH]c3ccccc23)cc1)N1CCNCC1,0.855,0.0347,-1.11,0.14,0.181,0.353,0.414,0.23,-0.136,-0.0947,0.329,-0.116,-0.16,-0.237,-0.398,0.451,-0.299,-0.484,0.164,-0.866
Oc1cc(O)cc(/C=C/c2ccc(O)c(O)c2)c1 [Piceatannol],0.632,0.83,0.529,0.814,0.736,0.555,0.583,0.721,0.651,0.803,0.536,0.9,0.908,1.17,0.773,0.805,0.499,0.537,0.384,0.66
O=C(O)[C@]1(Cc2cccc(Nc3nccs3)n2)CC[C@@H](Oc2cccc(Cl)c2F)CC1,-0.975,-0.193,-0.632,-0.493,0.325,-0.744,-0.831,-0.772,-0.201,-0.305,-0.448,-0.919,-1.16,-0.905,-0.622,-0.106,-0.783,0.135,-0.0321,-0.654
Cc1cc(C(C)Nc2ccccc2)c2nc(N3CCOCC3)cc(=O)n2c1 (stereo not given),1.11,-0.218,-0.586,-0.144,-2.03,0.261,-1.72,0.375,0.837,0.697,-2.07,0.774,-0.126,0.0525,0.33,0.686,-1.24,0.986,0.626,0.292
CCCNC(=O)Nc1ccc(Oc2ncnc3cc(OC)c(OC)cc23)cc1Cl,1.16,0.596,0.893,0.714,0.251,0.596,0.525,0.519,0.873,0.823,0.986,0.793,1.08,1.07,0.859,0.653,0.611,0.687,0.873,1.01
COc1cc(N2CCC(N(C)C)CC2)ccc1Nc1ncc(Cl)c(Nc2ccccc2P(C)(C)=O)n1,-0.179,-1.78,-2.91,-2.47,-2.66,-3.44,-2.74,-2.36,-2.23,-1.71,-2.52,-1.53,-1.21,-1.65,-1.9,-2.57,-2.71,-1.91,-2.49,-1.84
CC(C)(C)c1cc(/C=C(\C#N)C(N)=S)cc(C(C)(C)C)c1O [Tyrphostin AG 879],0.528,0.694,0.746,0.841,0.625,0.473,0.676,0.63,1.06,0.725,0.656,0.954,0.938,0.74,0.696,0.686,0.491,0.7,0.563,0.917
CN1CCN(c2ccc(OC(F)(F)F)c(Nc3ncc4c(n3)-c3c(c(C(N)=O)nn3CCO)CC4)c2)CC1,-2.79,-2.16,-2.35,-1.48,-1.47,-2.26,-2.49,-1.94,-2.8,-2.37,-2.06,-1.72,-2.54,-2.59,-2.32,-3.08,-3.33,-0.773,-1.86,-1.59
c1cncc(CN2CCC(n3ncc4c(N5CCOCC5)nc(-c5ccc6[nH]ccc6c5)nc43)CC2)c1,-0.323,0.0215,0.423,0.198,-0.173,0.659,0.0254,0.192,0.285,-0.319,0.0351,0.23,-0.297,-0.184,-1.17,0.286,0.507,-0.691,-0.167,-1.02
Clc1ccc(C2(c3ccc(-c4cn[nH]c4)cc3)CCNCC2)cc1,0.0679,0.0532,-0.292,0.607,0.397,-0.225,-2.06,-0.421,0.0151,0.337,-0.372,0.882,0.128,0.917,0.375,0.449,-0.919,0.0698,0.456,0.895
Cc1cnc(NC(=O)Nc2cc(Br)c(C)cc2OC[C@@H]2CNCCO2)cn1,0.417,0.531,-0.227,-1.5,0.00418,0.064,-1.11,0.422,0.937,0.594,-1.07,-0.0335,-0.0569,-0.3,-0.616,-0.121,-0.0996,-0.287,-0.451,0.733
